# Laboratory results taken from the supplement of paper PMC9174493.
# The other results are listed elsewhere or left out. Single values of this set are uncertain. Values with irradiation are relative to irradiated vehicle.
# Columns and labels:
# A549-Dual [1] = assay: NF-kB reporter (SEAP) activity, viability-corrected, relative to vehicle (fold change vs vehicle); higher = more activation of STING-IRF / NF-kB immune response reporter; settings: 10 µM
# A549-Dual [2] = assay: ISRE reporter (Lucia luciferase) activity, viability-corrected, relative to vehicle (fold change vs vehicle); higher = more activation of STING-IRF / NF-kB immune response reporter; settings: 10 µM
# 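Throughout, for NF-kB reporter (SEAP) activity, viability-corrected, relative to vehicle: viability correction based on the alamar blue assay, with concentrations leaving 10% survival or less dropped.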
SMILES,NF-kB reporter (A549-Dual [1]; irradiation: 8 Gy/4 fr),NF-kB reporter (A549-Dual [1]; irradiation: none),ISRE reporter (A549-Dual [2]; irradiation: 8 Gy/4 fr),ISRE reporter (A549-Dual [2]; irradiation: none)
C[C@H](O)C(=O)[O-].[Na+] [Sodium L-lactate],0.76,0.728,1.02,0.771
CC(C)CC(NC(=O)C(Cc1ccc2ccccc2c1)NC(=O)C(Cc1ccc(O)cc1)NC(=O)C(CO)NC(=O)C(Cc1c[nH]c2ccccc12)NC(=O)C(Cc1c[nH]cn1)NC(=O)C1CCC(=O)N1)C(=O)NC(CCCNC(=N)N)C(=O)N1CCCC1C(=O)NCC(N)=O (stereo not drawn) [Nafarelin Acetate],0.809,0.69,0.809,0.6
CC1(C)SC2C(NC(=O)C(C(=O)O)c3ccsc3)C(=O)N2C1C(=O)O.[NaH].[NaH] (stereo not drawn) [Ticarcillin sodium],0.84,1.12,1.1,0.834
Cc1cc(NS(=O)(=O)c2ccc(N)cc2)nc(C)n1 [sulfaisodimidine],0.811,0.899,0.768,0.751
CC1OC2(CS1)CN1CCC2CC1.Cl (stereo not drawn) [Cevimeline],0.615,0.77,0.594,0.466
OCC1OC(OCC2OC(OC3(CO)OC(CO)C(O)C3O)C(O)C(O)C2O)C(O)C(O)C1O (stereo not drawn) [Raffinose],0.766,0.478,0.764,0.489
Nc1nc(O)c2nc(O)cnc2n1.O [Xanthopterin Hydrate],1.3,0.656,1.33,0.595
CCCNS(=O)(=O)Nc1ncnc(OCCOc2ncc(Br)cn2)c1-c1ccc(Br)cc1 [Macitentan],0.803,0.964,0.185,0.232
CCOC(=O)N1c2ccc(C(F)(F)F)cc2C(N(Cc2cc(C(F)(F)F)cc(C(F)(F)F)c2)C(=O)OC)CC1CC (stereo not drawn) [Torcetrapib],0.669,1.18,0.552,0.765
OCC1OC(c2ccc(Cl)c(Cc3ccc(OC4CCOC4)cc3)c2)C(O)C(O)C1O (stereo not drawn),0.706,0.751,0.624,0.749
CC(C)(C)NCC(O)c1ccc(O)c(CO)c1.O=S(=O)(O)O (stereo not drawn) [Salbutamol Sulfate],1.02,1.11,1.13,0.849
NCCCNCCCCNCCCN [Spermine],0.576,0.568,0.703,0.599
Cl.Cl.NCCc1c[nH]cn1 [Histamine 2HCl],0.727,0.737,1.04,0.902
O=C(O)/C=C/c1ccc(Cn2ccnc2)cc1 [Ozagrel],1.06,0.59,1.17,0.758
N[C@@H](Cc1c[nH]c2ccc(O)cc12)C(=O)O [L-5-Hydroxytryptophan],0.838,1.07,0.823,0.698
O=c1cc(CO)occ1O [Kojic acid],1.08,1.08,0.955,0.763
O=C1c2c(O)cc(O)cc2OC(c2ccc(O)c(O)c2)C1O (stereo not drawn) [Taxifolin (Dihydroquercetin)],0.758,0.658,0.859,0.409
CC1C(NC(=O)/C(=N\OC(C)(C)C(=O)O)c2csc(N)n2)C(=O)N1S(=O)(=O)O (stereo not drawn) [Aztreonam],0.76,0.886,0.807,0.716
O=C(CO)C(O)C(OC1OC(CO)C(O)C(O)C1O)C(O)CO (stereo not drawn) [Lactulose],0.789,0.965,0.756,0.85
CO/N=C(\C(=O)NC1C(=O)N2C(C(=O)OC(C)OC(C)=O)=C(COC(N)=O)CSC12)c1ccco1 (stereo not drawn) [Cefuroxime axetil],0.854,0.855,0.794,0.617
CC(=O)C1(O)CCC2C3CC(C)C4=CC(=O)CCC4(C)C3CCC21C (stereo not drawn) [Medroxyprogesterone],0.435,1.07,0.189,0.56
CC(C)NCC(O)COc1cccc2[nH]ccc12 (stereo not drawn) [Pindolol],0.71,0.742,0.609,0.8
"C=C1C2CCC3C2C(C)(C)CCCC13C (single isomer, unassigned; (+)) [(+)-Longifolene]",1.16,0.963,1.09,1.07
C[N+]1(C)CCC(OC(=O)C(O)(c2ccccc2)C2CCCC2)C1.[Br-] (stereo not drawn) [Glycopyrrolate],0.87,0.631,0.955,0.694
O=C1c2c(O)cccc2C(OC2OC(CO)C(O)C(O)C2O)c2cc(CO)cc(O)c21 (stereo not drawn) [Casanthranol],0.434,0.614,0.497,0.42
CC1(OC(=O)/C=C/c2ccccc2)CC(O)C2(O)C=COC(OC3OC(CO)C(O)C(O)C3O)C12 (stereo not drawn) [Harpagoside],0.85,0.819,0.783,0.799
NC(=O)c1ccccc1O [Salicylamide],0.833,0.827,0.888,0.744
